The other results are listed elsewhere or left out. Sequences were assembled here from the parent chain. Values near 0.05 are background.
B1: TEV protease; numbered along this chain (parent)
chain: MGESLFKGPRDYNPISSSICHLTNESDGHTTSLYGIGFGPFIITNKHLFRRNNGTLVVQSLHGVFKVKDTTTLQQHLVDGRDMIIIRMPKDFPPFPQKLKFREPQREERICLVTTNFQTKSMSSMVSDTSCTFPSGDGIFWKHWIQTKDGQCGSPLVSTRDGFIVGIHSASNFTNTNNYFTSVPKNFMELLTNQEAQQWVSGWRLNADSVLWGGHKVFMVKPEEPFQPVKEATQL

Variants of: B1
Assay: raw area under fraction-flipped curve 0-4 h after induction (AUC4h, not background-subtracted), DNA-recorder readout of cleavage of the substrate (dimensionless); higher = more cleavage of the substrate by the protease variant
Conditions: temperature: 34 °C; time window: 0-4 h after rhamnose induction
Experimental: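 In vivo DNA recorder in E. coli TOP10(DE3) ΔrhaA at 34 °C. Each TEVp single-site mutant (parent TEVp 0) is paired with a single-site variant of the 7-mer TEVs (canonical ENLYFQ|S). The substrate sits between flexible linkers in a Bxb1-sfGFP-TEVs-SsrA fusion, so cleavage stabilises Bxb1 and speeds flipping of a recombination array, read by NGS. The value is the raw area under the fraction-flipped curve over 0-4 h after rhamnose induction (AUC4h), with ≥20 reads per time point. It is not background-subtracted; inactive controls average about 0.047.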
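Also: Bxb1 expression induced with 0.2% (w/v) L-rhamnose at OD600 near 0.5, cultures sampled hourly, flipped fraction per protease–substrate barcode pair counted by paired-end Illumina sequencing.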

Variant | area with substrate ENLAFQS | area with substrate ENLCFQS | area with substrate ENLDFQS | area with substrate ENLEFQS | area with substrate ENLFFQS | area with substrate ENLHFQS | area with substrate ENLIFQS | area with substrate ENLKFQS | area with substrate ENLNFQS | area with substrate ENLPFQS | area with substrate ENLRFQS | area with substrate ENLSFQS | area with substrate ENLTFQS | area with substrate ENLGFQS | area with substrate ENLQFQS | area with substrate ENLLFQS | area with substrate ENLMFQS | area with substrate ENLVFQS | area with substrate ENLWFQS
T72Y | 0.0546 | 0.0186 | 0.0473 | 0.0572 | 0.0703 | 0.0265 | 0.0663 | 0.0557 | 0.0663 | 0.0644 | 0.0664 | 0.053 | 0.0569 | – | – | – | – | – | –
Q105H | 0.0706 | 0.0571 | 0.068 | 0.07 | 0.0826 | 0.0662 | 0.0944 | 0.073 | 0.0582 | 0.0919 | – | 0.0513 | – | 0.0648 | 0.079 | – | – | – | –
I43M | 0.0562 | 0.0547 | 0.0564 | 0.0614 | 0.0656 | 0.0625 | 0.0734 | 0.0598 | 0.0623 | 0.0519 | 0.0645 | – | – | 0.0593 | 0.0606 | 0.0775 | 0.0752 | – | –
R50Q | 0.0666 | – | 0.0637 | – | 0.0856 | 0.0746 | 0.0541 | 0.0778 | 0.0599 | 0.0443 | – | 0.069 | – | – | 0.0692 | 0.079 | – | 0.076 | 0.0753
R50V | 0.0647 | – | 0.0572 | 0.109 | – | 0.0521 | 0.0909 | 0.0866 | 0.0713 | 0.0546 | – | 0.069 | – | 0.0884 | 0.0692 | – | – | – | 0.0654
P94M | 0.0689 | 0.0519 | 0.0461 | 0.0943 | 0.128 | – | 0.145 | – | 0.0616 | 0.0717 | 0.0684 | – | – | 0.0626 | 0.0823 | – | 0.0419 | – | –
K98Y | 0.0655 | – | 0.0737 | 0.0668 | 0.0836 | 0.067 | 0.0835 | – | 0.0623 | 0.0638 | 0.0756 | 0.0644 | 0.0572 | 0.0733 | – | 0.0919 | – | – | 0.064
F65S | 0.0587 | – | 0.0795 | 0.0776 | 0.0415 | 0.0318 | – | – | – | 0.0694 | – | – | – | – | – | – | 0.0668 | 0.0772 | –
E107C | 0.0653 | – | 0.0669 | – | 0.0822 | 0.0749 | 0.0707 | – | 0.08 | – | – | 0.103 | – | 0.076 | – | 0.069 | 0.0746 | – | –
N53E | 0.0817 | – | 0.0558 | 0.0671 | 0.0837 | – | – | – | 0.048 | – | 0.0748 | 0.0626 | – | 0.0715 | – | – | – | 0.0895 | –
M83Q | 0.0594 | – | 0.0783 | – | 0.0569 | 0.0569 | – | 0.0573 | – | – | – | 0.0491 | 0.0601 | – | 0.0306 | 0.0749 | 0.074 | 0.0036 | 0.0502
M83S | 0.0528 | – | 0.0639 | – | 0.0542 | 0.0659 | 0.0593 | 0.0658 | 0.0953 | 0.0547 | 0.0723 | 0.0785 | – | 0.0675 | – | – | 0.039 | – | 0.0477
M83Y | 0.0497 | – | 0.046 | – | 0.0651 | 0.0619 | 0.0376 | 0.0547 | 0.0625 | 0.0659 | – | 0.0547 | – | – | 0.0535 | – | – | – | –
Q59T | 0.0626 | 0.0733 | – | – | – | 0.0645 | – | 0.0808 | 0.0686 | 0.0731 | – | 0.0762 | – | – | – | 0.0795 | – | – | –
F49E | 0.0512 | 0.0519 | 0.0572 | 0.05 | 0.0576 | 0.0594 | 0.0633 | 0.0673 | 0.0537 | – | 0.0474 | 0.0392 | – | 0.0529 | 0.0544 | 0.0771 | – | 0.059 | 0.0506

From the supplement of paper PMC12217912
